Results reported in patent publication US20230331822A1 (published 2023).

B1: COV2-13-5-Fc (Fc fusion)
chain: QLQLVESGGDLVQPGESLRLSCVASGFTLGNYEIGWFRQAPGKEREGVSCISRSGVIFSYADSVRGRFTISRENAKNAVYLEMNSLKPEDTAVYYCAARFRAGLVQSLCQSTPEFYQDWGQGTQVTVSS[human IgG1 Fc with changes not listed]
B2: COV2-356-6-Fc (Fc fusion)
chain: QLQLVESGGDLVQPGESLRLSCVASGFTLGNYAIGWFRQAPGKEREGVSCISLSGDIISYADSVRGRFTISRENAKNAVYLEMNSLKPEDTAVYYCAAPFPSLLYCSLCPSNPEFCRHWGQGTQVTVSS[human IgG1 Fc with changes not listed]
B3: COV2-115-7-Fc (Fc fusion)
chain: QLQLVESGGDLVQPGESLRLSCVASGFSLDGYAIGWFRQAPGKEREGVSCIGRLGTTTSYADSVRGRFTISRENAKNAVYLEMNSLKPEDTAVYYCAAKRSTWFGCSTLDDYDYWGQGTQVTVSS[human IgG1 Fc with changes not listed]
B4: COV2-22-8-Fc (Fc fusion)
chain: QLQLVESGGDLVQPGESLRLSCVASGFTLDRYAIGWFRQAPGKEREGVSCISSGGTTSYADSVRGRFTISRENAKNAVYLEMNSLKPEDTAVYYCAAGTQLRYGCSRQARRYDYWGQGTQVTVSS[human IgG1 Fc with changes not listed]
B5: COV2-122-10-Fc (Fc fusion)
chain: QLQLVESGGDLVQPGESLRLSCVASGATSDIYAIGWFRQAPGKEREGVSCISPSGGSTSYADSVRGRFTISRENAKNAVYLEMNSLKPEDTAVYYCAAASPSWHYCSGYEHEYDDWGQGTQVTVSS[human IgG1 Fc with changes not listed]
B6: COV2-136-12-Fc (Fc fusion)
chain: QLQLVESGGDLVQPGESLRLSCVASGFTFHYYAIGWFRQAPGKEREGVSCISSGGGRTSYADSVRGRFTISRENAKNAVYLEMNSLKPEDTAVYYCAALQGSLHYCSGLVGEYEYWGQGTQVTVSS[human IgG1 Fc with changes not listed]
B7: COV2-237-13-Fc (Fc fusion)
chain: QLQLVESGGDLVQPGESLRLSCVASFKSYHIAWIGWFRQAPGKEREGVSCSLTGASITSYADSVRGRFTISRENAKNAVYLEMNSLKPEDTAVYYCAARDYASSLYCSRNEAMYAYWGQGTQVTVSS[human IgG1 Fc with changes not listed]
B8: COV2-353-14-Fc (Fc fusion)
chain: QLQLVESGGDLVQPGESLRLSCVASGFRLGGYAIGWFRQAPGKEREGVSCISGSGIISSYADSVRGRFTISRENAKNAVYLEMNSLKPEDTAVYYCAAPSGSSYGSRRLPCGIDSQDYQTWGQGTQVTVSS[human IgG1 Fc with changes not listed]
B9: COV2-121-15-Fc (Fc fusion)
chain: QLQLVESGGDLVQPGESLRLSCVASFDDFAIGWIGWFRQAPGKEREGVSCSARGIVNTSYADSVRGRFTISRENAKNAVYLEMNSLKPEDTAVYYCAALVGLNDRSLPHEAEEYDYWGQGTQVTVSS[human IgG1 Fc with changes not listed]
B10: COV2-324-16-Fc (Fc fusion)
chain: QLQLVESGGDLVQPGESLRLSCVASGFTFDDYSIGWFRQAPGKEREGVSCFSSLDGSTSYADSVRGRFTISRENAKNAVYLEMNSLKPEDTAVYYCAATRGSSWYWYRPSEYDYWGQGTQVTVSS[human IgG1 Fc with changes not listed]

What was measured:
[1] = target: T1, HCoV-NL63 Spike protein, full length, C-terminally fused with EGFP (HCoV-NL63, UniProt Q6Q1S2 19-1356); test: flow cytometry, HEK293 cells expressing full-length Spike-EGFP, anti-hIg-PE
T1 construct: whole, on cells
T1 sequence: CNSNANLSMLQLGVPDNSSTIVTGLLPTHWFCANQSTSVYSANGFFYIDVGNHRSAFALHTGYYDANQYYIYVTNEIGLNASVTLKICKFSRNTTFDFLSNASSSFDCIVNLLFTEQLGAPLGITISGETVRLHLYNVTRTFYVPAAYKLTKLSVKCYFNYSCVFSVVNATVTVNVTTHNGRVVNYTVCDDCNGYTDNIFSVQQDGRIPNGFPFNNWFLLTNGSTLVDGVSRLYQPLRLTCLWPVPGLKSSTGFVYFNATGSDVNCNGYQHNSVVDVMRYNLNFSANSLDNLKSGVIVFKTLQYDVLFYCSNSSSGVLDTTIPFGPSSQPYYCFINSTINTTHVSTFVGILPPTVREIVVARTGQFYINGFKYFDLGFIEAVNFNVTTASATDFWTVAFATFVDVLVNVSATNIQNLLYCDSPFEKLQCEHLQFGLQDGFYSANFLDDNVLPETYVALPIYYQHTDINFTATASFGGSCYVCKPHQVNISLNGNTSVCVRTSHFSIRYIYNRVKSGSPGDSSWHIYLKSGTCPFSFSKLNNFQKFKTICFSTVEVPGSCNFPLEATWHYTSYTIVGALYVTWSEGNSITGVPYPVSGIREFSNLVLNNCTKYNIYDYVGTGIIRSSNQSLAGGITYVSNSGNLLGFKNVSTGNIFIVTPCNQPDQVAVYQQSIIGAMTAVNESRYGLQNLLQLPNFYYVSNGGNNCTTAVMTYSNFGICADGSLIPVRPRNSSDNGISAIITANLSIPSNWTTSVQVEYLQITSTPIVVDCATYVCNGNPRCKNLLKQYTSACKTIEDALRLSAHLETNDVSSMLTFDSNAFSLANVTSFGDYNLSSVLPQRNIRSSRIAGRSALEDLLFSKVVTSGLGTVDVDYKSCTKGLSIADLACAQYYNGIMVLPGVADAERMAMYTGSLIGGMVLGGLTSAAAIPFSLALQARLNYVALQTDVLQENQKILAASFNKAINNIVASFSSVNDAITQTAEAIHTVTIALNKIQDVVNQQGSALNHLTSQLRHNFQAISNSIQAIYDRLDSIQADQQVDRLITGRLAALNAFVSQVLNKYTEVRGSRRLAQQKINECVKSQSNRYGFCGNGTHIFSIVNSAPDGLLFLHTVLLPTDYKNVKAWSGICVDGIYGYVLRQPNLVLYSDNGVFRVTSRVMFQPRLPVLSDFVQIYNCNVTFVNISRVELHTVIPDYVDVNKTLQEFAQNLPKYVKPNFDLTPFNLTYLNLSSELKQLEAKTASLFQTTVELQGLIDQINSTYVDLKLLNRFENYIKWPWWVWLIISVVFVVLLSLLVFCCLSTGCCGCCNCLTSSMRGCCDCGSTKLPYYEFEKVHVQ

[2] = target: T2, HCoV-229E Spike protein, full length, C-terminally fused with EGFP (HCoV-229E, UniProt P15423 16-1173); test: as above
T2 construct: whole, on cells
T2 sequence: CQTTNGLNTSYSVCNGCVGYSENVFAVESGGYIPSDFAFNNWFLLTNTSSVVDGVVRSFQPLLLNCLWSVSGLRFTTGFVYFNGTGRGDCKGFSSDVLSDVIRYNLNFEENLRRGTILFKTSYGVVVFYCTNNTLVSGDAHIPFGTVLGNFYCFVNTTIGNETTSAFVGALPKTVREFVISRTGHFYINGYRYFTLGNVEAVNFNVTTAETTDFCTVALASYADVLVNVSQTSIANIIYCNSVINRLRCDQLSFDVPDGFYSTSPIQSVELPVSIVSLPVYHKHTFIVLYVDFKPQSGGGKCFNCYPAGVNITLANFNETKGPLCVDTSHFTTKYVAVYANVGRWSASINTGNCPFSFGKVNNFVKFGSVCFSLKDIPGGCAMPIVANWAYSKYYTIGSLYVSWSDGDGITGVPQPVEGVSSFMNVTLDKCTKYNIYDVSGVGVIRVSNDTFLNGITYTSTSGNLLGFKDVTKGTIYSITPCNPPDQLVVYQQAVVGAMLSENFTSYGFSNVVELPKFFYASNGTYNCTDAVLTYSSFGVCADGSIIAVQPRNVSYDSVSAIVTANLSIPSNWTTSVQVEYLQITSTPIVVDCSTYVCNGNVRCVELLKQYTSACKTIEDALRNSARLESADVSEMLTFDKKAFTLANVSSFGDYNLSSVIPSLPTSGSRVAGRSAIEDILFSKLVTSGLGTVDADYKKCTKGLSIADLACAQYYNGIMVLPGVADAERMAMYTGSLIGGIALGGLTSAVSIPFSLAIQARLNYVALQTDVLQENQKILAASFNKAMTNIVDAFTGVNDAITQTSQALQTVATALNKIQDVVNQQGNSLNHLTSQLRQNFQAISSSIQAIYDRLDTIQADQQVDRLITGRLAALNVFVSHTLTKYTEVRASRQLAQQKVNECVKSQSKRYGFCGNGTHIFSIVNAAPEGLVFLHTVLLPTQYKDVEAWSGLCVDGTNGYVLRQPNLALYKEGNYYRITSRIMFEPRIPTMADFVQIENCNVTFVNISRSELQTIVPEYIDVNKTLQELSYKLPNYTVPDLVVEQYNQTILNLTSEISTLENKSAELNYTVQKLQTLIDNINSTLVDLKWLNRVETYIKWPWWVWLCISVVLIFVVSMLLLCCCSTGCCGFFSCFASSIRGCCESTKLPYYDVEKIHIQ

Binder | binding result [1] | binding result [2]
B1 | no binding | no binding
B2 | no binding | no binding
B3 | no binding | no binding
B4 | no binding | no binding
B5 | no binding | no binding
B6 | no binding | no binding
B7 | no binding | no binding
B8 | no binding | no binding
B9 | no binding | no binding
B10 | no binding | no binding
